The other results are listed elsewhere or left out.
T1: UNK ZnF1-6 (called full-length) (human, UniProt Q9C0B0 30-357)
T1 sequence: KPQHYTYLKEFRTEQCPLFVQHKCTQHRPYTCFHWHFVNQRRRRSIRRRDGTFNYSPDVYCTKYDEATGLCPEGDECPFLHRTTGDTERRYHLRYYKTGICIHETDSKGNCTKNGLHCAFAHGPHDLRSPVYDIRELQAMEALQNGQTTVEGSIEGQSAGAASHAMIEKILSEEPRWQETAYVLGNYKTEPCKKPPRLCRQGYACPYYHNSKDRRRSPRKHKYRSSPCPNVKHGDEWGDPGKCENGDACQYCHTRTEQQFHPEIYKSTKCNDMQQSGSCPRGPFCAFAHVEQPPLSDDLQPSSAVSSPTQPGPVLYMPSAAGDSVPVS

B1: chrX:85271413:85271529:+|CDS|ENSG00000147180|unk|total|mutant (ssRNA)
RNA: GGGAGUUCUACAGUCCGACGAUCUGUGAUAAAGGUUUUCAUCGUCCUUCUGAGCUCAAAAAGCACCGUGAUAUCCAUAAGGGCCGGAAGAUUCAUCAGUGCAGGCACUGUGACUUUAAAACAUCCGAUCCAUUUAUUCUCCGUCAACAGAGGAUUGAGCAUCA
B2: chr1:168200228:168200338:+|3pUTR|ENSG00000143155|unk|total|mutant (ssRNA)
RNA: GGGAGUUCUACAGUCCGACGAUCUAUUUUCUGGAGUUAAAUUUGGAUGAUUUCUAAAUUAUCACAAAGUGGGACCUCAGCAGCCGUGAUGUGUGUGUCUCAUGAGCAGUGAGCACAGUCUGCAUUCAUCAUGAAACACUAUCUCAACAGAGGAUUGAGCAUCA
B3: ENSG00000101945:stop:overlap|stop_codon|ENSG00000101945|stop_codon|NA|stop_codon (ssRNA)
RNA: GGGAGUUCUACAGUCCGACGAUCAGAAGCGGGUCCGUAUUGAAUGCAAGUGUGGGACUGAGUCCUGCCGCAAAUACCUCUUCUAGCCCUUAGAAGUCUGAGGCCAGACUGACUGAGGGGGCCUGAAGCUACAUGCACCUCCCCCAACAGAGGAUUGAGCAUCA
B4: ENSG00000070961:be:win_501|CDS|ENSG00000070961|bound_else_gene|NA|bound_elsewhere_windowed (ssRNA)
RNA: GGGAGUUCUACAGUCCGACGAUCGUUAGUAACAGCUUUCAAUGACUGGAGUAAGGAAAAACAGUUUAGAGGUUUGCAGAGCCGAAUUGAACAAGAACAGAAGUUCACUGUCAUCAGGGGUGGUCAGGUCAUUCAGAUACCUGUCAACAGAGGAUUGAGCAUCA
B5: chr20:56404979:56405080:+|3pUTR|ENSG00000101138|unk|FALSE|unique (ssRNA)
RNA: GGGAGUUCUACAGUCCGACGAUCCCGCGCCCAGCCUUCCUGAAGCUUUUUAGAACAUGACAGUACUUCUCUGGAUUCAGCACUAGCAGAGUCAGAGAACUCUGAACUCCCCUUGUACAAACAUAAACUUUGCUUUAUAUUUAUCAACAGAGGAUUGAGCAUCA
B6: chr11:83166318:83166419:+|CDS|ENSG00000165494|unk|FALSE|unique (ssRNA)
RNA: GGGAGUUCUACAGUCCGACGAUCGGGACAAAACCAGGGAGAUCGAGUACUAGAAAGCGAUCAAGAUCUCGAUCACCCAAGUCUAGGUCACCAAUUAUACAUUCCCCAAAGAGAAGAGAUAGGCGGUCACCCAAACGAAGGCAACAACAGAGGAUUGAGCAUCA
B7: chr14:71723713:71723820:+|CDS|ENSG00000197555|unk|total|mutant (ssRNA)
RNA: GGGAGUUCUACAGUCCGACGAUCGCUGCCCCCUCACAGCUCGCACCAUCCUUCUCCUCCUCUUCCUCCUCCUCCUCUGGUCCCCGGAGUUUUUACCCUCGCCAGGGCGCUACCCGCAAGUACCUGAUUGGAUGGAAAAAACCCCAACAGAGGAUUGAGCAUCA
B8: ENSG00000198589:be:win_8451|CDS_3pUTR|ENSG00000198589|bound_else_gene|NA|bound_elsewhere_windowed (ssRNA)
RNA: GGGAGUUCUACAGUCCGACGAUCGCUGUCUUACGACCAGAGGUGCAUCAUUUCUGGCAUGGCUUCAGGAAGCAUUGUGCUAUUUUACAACGACUUUAACCGGUGGCAUCAUGAAUACCAAACCCGCUACUGAUGGUGACAGCUCAACAGAGGAUUGAGCAUCA
B9: chr16:21843385:21843581:-|three_prime_utr|ENSG00000185864|control|control|control (ssRNA)
RNA: GGGAGUUCUACAGUCCGACGAUCGGAAAUAAAAUUGUCCUGAAAGACGUCAUUACUCUACGGAGACAUGUGGAAACAAAAGUUAGAGCUAAAAUCCGUAAGAGGAAGGUGACAACGAAAAUCAACCAUCAUGACAAAAUCAAUCAACAGAGGAUUGAGCAUCA
B10: chr11:108106880:108106981:+|3pUTR|ENSG00000166266|msi1|total|mutant (ssRNA)
RNA: GGGAGUUCUACAGUCCGACGAUCUCCGUGGUAUGGCAAUAAGACACUUCAGAGGCUAUCUUAACCUCUGAAUACCCAUCUUCCCGUUUAAAGACAGAGACAUCCCAUCUGGAAAAUGUUAACUUGUGUUGCCAUCUCGUUGCCCAACAGAGGAUUGAGCAUCA
B11: chr2:73700624:73701305:-|CDS|ENSG00000204872|control|control|control (ssRNA)
RNA: GGGAGUUCUACAGUCCGACGAUCACCGUGGUCAGGGGAUAGCAAAAGCCCUGGUCAGGACUGUCCUCCAGUUUGCCCGGGACUAGGGCUACAGUGAAGUUGUCCUGGACACCAGCAACAUCCAGCUCUCUGCCAUGGGCCUCUCAACAGAGGAUUGAGCAUCA
B12: chr11:35231809:35232301:+|3pUTR|ENSG00000026508|msi1|total|mutant (ssRNA)
RNA: GGGAGUUCUACAGUCCGACGAUCACAACACCAAGAAUUGAUUUUGCCGCCAACAUUCAUUCAAUACUGUUAUAUCAGAGGAGCCGGAGAGAGGAAACAUUUGACUUAUCUGGAAAAGCAAAAUGUACUUAAGAAUAAGAAUAACAACAGAGGAUUGAGCAUCA
B13: chr14:70725707:70725808:-|3pUTR|ENSG00000006432|unk|total|mutant (ssRNA)
RNA: GGGAGUUCUACAGUCCGACGAUCGUCGAAUAUCAGCUAUUUCAUAUGGUUCACCCUAAUGUACCUGCCUCUCUCUUUGGCUUCCGGUCUGAGAAUGACUUGUCUUUGUCAAGGUAUACUAUUGUCCGAAACGCAUUACCAAAUCAACAGAGGAUUGAGCAUCA
B14: chr19:6380113:6380214:-|3pUTR|ENSG00000125651|msi1|total|mutant (ssRNA)
RNA: GGGAGUUCUACAGUCCGACGAUCACUUCAGGCUCUCAGUGACCCUUCGACAUCCUGCUUGCUCCCUGACUCCCAGGGCCCCGCCGUCCGCAAUUCUGGAAAAGUUAAGCCAUCUCCUCCUCUGGCCCUUCCUUCUGGAAUCUUCAACAGAGGAUUGAGCAUCA

Each binder was assayed against T1, UNK ZnF1-6 (called full-length) (assay: nsRBNS (natural sequence RNA bind-n-seq); RBNS binding buffer (assumed for nsRBNS): 25 mM Tris pH 7.5, 150 mM KCl, 3 mM MgCl2, 0.01% Triton X-100, 500 ug/ml BSA, 20 U/ml SUPERase-In, 4 C; UNK is unkempt and MSI1 is Musashi-1; names of the RNAs are library labels; protein concentration not given here; high values mean tight binding).

Binder	binding signal
B1	0.362 enrichment R
B2	0.517 enrichment R
B3	0.806 enrichment R
B4	0.893 enrichment R
B5	0.704 enrichment R
B6	0.555 enrichment R
B7	0.929 enrichment R
B8	0.416 enrichment R
B9	0.231 enrichment R
B10	0.365 enrichment R
B11	0.788 enrichment R
B12	0.502 enrichment R
B13	0.463 enrichment R
B14	0.783 enrichment R
